What follows are compounds tested on panel of 60 different human tumor cell lines (assay: NCI 60 cell-line screen, whole panel (mean panel values)). Conditions: Homo sapiens, read-out: Mean-Panel GI50.

SMILES	GI50
CO/N=C/C=C/C(=O)N/C=C/CC1CC(=O)OC(CO)/C=C/C(O)/C(C)=C\Cc2cccc(O)c2C(=O)O1 (stereo not drawn) [lobatamide F]	10 nM
CO/N=C/C=C\C(=O)N/C=C/CC1CC(=O)OC(C)/C=C/C(O)/C(C)=C\Cc2cccc(O)c2C(=O)O1 (stereo not drawn) [lobatamide A]	4.8 nM
CO/N=C/C=C/C(=O)N/C=C/CC1CC(=O)OC(C)/C=C/C(O)/C(C)=C\Cc2cccc(O)c2C(=O)O1 (stereo not drawn) [lobatamide C]	2.5 nM
CO/N=C\C=C/C(=O)N/C=C/CC1CC(=O)OC(CO)/C=C/C(O)/C(C)=C\Cc2cccc(O)c2C(=O)O1 (stereo not drawn) [lobatamide E]	1.3 nM
CO/N=C\C=C/C(=O)N/C=C/CC1CC(=O)OC(C)/C=C/C(O)/C(C)=C\Cc2cccc(O)c2C(=O)O1 (stereo not drawn) [lobatamide B]	0.73 nM
CC/C=C\C=C/C(=O)N/C=C/CC1CC(O)C(C)C/C=C/Cc2cccc(O)c2C(=O)O1 (stereo not drawn) [salicylihalamide A]	33 nM

Same assay, conditions: Homo sapiens, read-out: mean panel GI50 concentration

SMILES	GI50
CC/C=C\C=C/C(=O)N/C=C/CC1CC(O)C(C)C/C=C/Cc2cccc(O)c2C(=O)O1 (stereo not drawn) [salicylihalamide A]	~15 nM

Same assay, conditions: read-out: Mean-Panel GI50; Example 5, contemporaneous quadruplicate testing, upper concentration 10^-6 molar

SMILES	GI50
CO/C1=C\C(C)=C\[C@@H](C)[C@@H](O)[C@@H](C)C/C(C)=C/C=C/[C@H](OC)[C@@H]([C@@H](C)[C@@H](O)[C@H](C)[C@@]2(O)C[C@@H](O)[C@H](C)[C@@H](C(C)C)O2)OC1=O [bafilomycin A1, reference compound]	4.6 nM
C/C=C/[C@H]1O[C@@](O)([C@@H](C)[C@H](O)[C@H](C)[C@H]2OC(=O)/C(OC)=C/C(C)=C/[C@@H](C)[C@@H](O)[C@@H](CC)[C@@H](O)[C@H](C)C/C(C)=C/C=C/[C@@H]2OC)C[C@@H](O[C@H]2C[C@@H](O)[C@H](OC(N)=O)[C@@H](C)O2)[C@@H]1C [concanamycin A, reference compound]	0.33 nM
